From the supplement of paper PMC5895741 come the findings set out here.

The chains are these.
B1: MS2 coat protein; the commonest letter at each place (parent)
chain: MASNFTQFVLVDNGGTGDVTVAPSNFANGVAEWISSNSRSQAYKVTCSVRQSSAQNRKYTIKVEVPKVATQTVGGVELPVAAWRSYLNMELTIPIFATNSDCELIVKAMQGLLKDGNPIPSAIAANSGIY
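Further: counts from Illumina MiSeq reads, cDNA of packaged RNA versus plasmid DNA taken before selection, each replicate independent from library construction onward, expression induced with 0.1% arabinose.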

The variants in this data set derive from B1. The data set is described as follows: apparent fitness score (VLP assembly selection enrichment vs plasmid library) (log10 ratio); higher = better expression / assembly into well-formed VLPs. On the procedure: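 SyMAPS: NNK codon saturation mutagenesis of every codon of the MS2 bacteriophage coat protein (EMPIRIC cloning), expressed overnight in E. coli DH10B at 37 °C. Assembled VLPs were selected by ammonium sulfate precipitation plus FPLC size-exclusion chromatography, and the encapsidated RNA was sequenced. Apparent fitness score = log10 of the mean over 3 biological replicates of (percent abundance in the VLP library / percent abundance in the plasmid library). Variants absent after selection were set to 0.0001, i.e. -4.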
Turning to MASNFTQFVLVDNGGTGDVTVAPSNFANGVAEWISSNSRSQAYKVTCSVRQSSAQHRKYTIKVEVPKVATQTVGGVELPVAAWRSYLNMELTIPIFATNSDCELIVKAMQGLLKDGNPIPSAIAANSGIY [N56H], the “apparent fitness score (log10)” value is -1.09.
For MASNFTQFVLVDNGGTGDVTVAPSNFANGVAEWISSNSRSQAYKVTCSVRQSSAQNRKYTIPVEVPKVATQTVGGVELPVAAWRSYLNMELTIPIFATNSDCELIVKAMQGLLKDGNPIPSAIAANSGIY [K62P], the “apparent fitness score (log10)” value was -1.66.
As for MASNFTQFVLVDNGGTGDVTVAPSNFANGVAEWISSNSRSQAYKVTCSVRQSSAQNRKYTIKVEVPKVATQTVGGVELPVAAWRSYLNMELTIPIFATNSDCELIVKAMQGLLKDGNPIPSAIAANSGIH [Y130H], the figure is 0.456.
For the variant MASNFTQFVLVDNGGTGDVTVAPSNFANGVAEWISSNSRSQAYKVTCSVRQSSAKNRKYTIKVEVPKVATQTVGGVELPVAAWRSYLNMELTIPIFATNSDCELIVKAMQGLLKDGNPIPSAIAANSGIY [Q55K], the “apparent fitness score (log10)” value stood at 0.537.
As for MASNFTQFVLVDNGGTGDVTVAPSNFANGVAEWISSNSRSQAYKVTCSVRQSSAQNRKYTIKVEVPKVATQTVGGVELPVAAWRSYLNMELTIPIFATNSDCELDVKAMQGLLKDGNPIPSAIAANSGIY [I105D], the “apparent fitness score (log10)” value is under -4.
As to MASNFTQFVLVDNGGTGDVTVAPSNFANGVAEWISSNSRSQAYKVTCSVRQSSAQNRKYTVKVEVPKVATQTVGGVELPVAAWRSYLNMELTIPIFATNSDCELIVKAMQGLLKDGNPIPSAIAANSGIY [I61V], the “apparent fitness score (log10)” value amounted to 0.457.
Next, MASNFTQFVLVDNGGTGDVTVAPSNFCNGVAEWISSNSRSQAYKVTCSVRQSSAQNRKYTIKVEVPKVATQTVGGVELPVAAWRSYLNMELTIPIFATNSDCELIVKAMQGLLKDGNPIPSAIAANSGIY [A27C]: 0.536; MASNFNQFVLVDNGGTGDVTVAPSNFANGVAEWISSNSRSQAYKVTCSVRQSSAQNRKYTIKVEVPKVATQTVGGVELPVAAWRSYLNMELTIPIFATNSDCELIVKAMQGLLKDGNPIPSAIAANSGIY [T6N]: 0.23; MASNFTQFVLVDNGGTGDVTVAPSNFANGVGEWISSNSRSQAYKVTCSVRQSSAQNRKYTIKVEVPKVATQTVGGVELPVAAWRSYLNMELTIPIFATNSDCELIVKAMQGLLKDGNPIPSAIAANSGIY [A31G]: -1.25.
Take MASNFTQFVLVDNGGTGDVTVAPSNFANGVAEWISSNSRSQAYKVTCSVRQSSAQNRKYTIKVEVPKVATQTVGGVELPVAAWRSYLNMELNIPIFATNSDCELIVKAMQGLLKDGNPIPSAIAANSGIY [T92N]: the “apparent fitness score (log10)” value was 0.369.
For the variant MASNFTQFVLVDNGGTGDVTVAPSCFANGVAEWISSNSRSQAYKVTCSVRQSSAQNRKYTIKVEVPKVATQTVGGVELPVAAWRSYLNMELTIPIFATNSDCELIVKAMQGLLKDGNPIPSAIAANSGIY [N25C], the “apparent fitness score (log10)” value is under -4.
Take MASNFTQFVLVDNGGTGDVTVAPSEFANGVAEWISSNSRSQAYKVTCSVRQSSAQNRKYTIKVEVPKVATQTVGGVELPVAAWRSYLNMELTIPIFATNSDCELIVKAMQGLLKDGNPIPSAIAANSGIY [N25E]: the “apparent fitness score (log10)” value is -0.963.
As for MASNFTQFVLVDNGGTGDVTVAYSNFANGVAEWISSNSRSQAYKVTCSVRQSSAQNRKYTIKVEVPKVATQTVGGVELPVAAWRSYLNMELTIPIFATNSDCELIVKAMQGLLKDGNPIPSAIAANSGIY [P23Y], the figure is -1.72.
Next, MASNFTQFVLVDNGGTGDVTVAPSNFANGVAEWISSNSRSQAYKVTCSVRQSSAQNRKYTIKVEVPKVATQTVGGVELPVAAWRSYLNMELTIPIFAQNSDCELIVKAMQGLLKDGNPIPSAIAANSGIY [T98Q]: -0.838.
Next, MASNFTQFVLVDNGGTGDVTVAPSNFATGVAEWISSNSRSQAYKVTCSVRQSSAQNRKYTIKVEVPKVATQTVGGVELPVAAWRSYLNMELTIPIFATNSDCELIVKAMQGLLKDGNPIPSAIAANSGIY [N28T]: under -4; MASNFTQFVLVDNGGTGDVTVAPWNFANGVAEWISSNSRSQAYKVTCSVRQSSAQNRKYTIKVEVPKVATQTVGGVELPVAAWRSYLNMELTIPIFATNSDCELIVKAMQGLLKDGNPIPSAIAANSGIY [S24W]: -0.783; MASNFTQFVLVDNGGTGDVFVAPSNFANGVAEWISSNSRSQAYKVTCSVRQSSAQNRKYTIKVEVPKVATQTVGGVELPVAAWRSYLNMELTIPIFATNSDCELIVKAMQGLLKDGNPIPSAIAANSGIY [T20F]: 0.322.
MASNFTQFVLVDNGGTGDVTVAPSNFANGVAEWISSNSRSQAYKVTCSVRQSSAQNRKYTIKVEVPKVATQTVGGVELPVAAWRSYLNMELTIPIFATNSDCELIVKAMQGLLKDGNPIMSAIAANSGIY [P120M]: the “apparent fitness score (log10)” value was -0.331.
As for MASNFTQFVLVDNGGTGDVTVAPSNFANGVAEWISSNSRSQAYKVTCSVRQSSAQNRKYTIKVEVPKVATQTVGGVELPVAAWRSYLNMELTIPIFATNSDCELIVKAMQGLQKDGNPIPSAIAANSGIY [L113Q], the figure is under -4.
Consider MASNFTQFVLVDNGGTGDVTVAPSNFANGVAEWISSNSRSQAYKVTCSVRQSSAQNRKYTIKVEVPKVATQTVQGVELPVAAWRSYLNMELTIPIFATNSDCELIVKAMQGLLKDGNPIPSAIAANSGIY [G74Q], for which the “apparent fitness score (log10)” value was 0.274.
For the variant MASNFTQFVLVDNGGTGDVTVAPSNFANGVAEWISSNSRSQAYKVTCSVRQSSAQNRKYTIKVEVPKVATQTVGGVELPVAAWRSYLNMELTIPIFATNSDCELIVKAMQGLLKDGNPIPSAIAWNSGIY [A125W], the “apparent fitness score (log10)” value was -1.5.
Turning to MASNFTQFVLVDNGGTGDVTVAPSNFANGVAEWISSNSRSQAYKVTCSVRQSSAQNRKYTIKVEVPKVATQTVGGVELPVAAWRSYLNMELTIPIFATNSDCELIVKAMQGLLKDGNPEPSAIAANSGIY [I119E], the “apparent fitness score (log10)” value was -0.987.
